# Measurements reported in publication PMC7819943, “Rice protein-binding microarrays: a tool to detect cis-acting elements near promoter regions in rice”.
# Some of the results follow.
# Target: T1, OsWOX13 (Oryza sativa, UniProt Q5QMM3 1-267)
# T1 sequence: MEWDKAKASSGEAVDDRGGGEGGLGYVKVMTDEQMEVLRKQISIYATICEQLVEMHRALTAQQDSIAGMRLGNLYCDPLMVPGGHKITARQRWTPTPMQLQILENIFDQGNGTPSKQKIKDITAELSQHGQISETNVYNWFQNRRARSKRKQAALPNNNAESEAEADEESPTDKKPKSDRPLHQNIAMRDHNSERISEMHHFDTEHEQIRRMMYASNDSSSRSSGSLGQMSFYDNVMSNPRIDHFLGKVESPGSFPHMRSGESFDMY
# Test: protein-binding microarray (RPBM); PBS, 2% BSA, 51.3 ng/ul salmon testes DNA, 50 uM zinc acetate, 200 nM TF, 25 C, 1 h; high values mean tight binding
# Details: protein: recombinant; tags: N-terminal polyhistidine and DsRed monomer fusion (pET32a); label: CyDye5-dUTP incorporated in the synthesized complementary strand; 3' TTTTT single-stranded linker to array surface; dsDNA, one strand shown
# Method in brief: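 Binding signal here means per-feature fluorescence intensity in arbitrary units. The values were read on an Axon 4000B scanner after a custom Agilent array, double-stranded by primer extension with Cy5-dUTP, was incubated with 200 nM protein at 25 °C for 1 h in PBS with 2% BSA, salmon testes DNA and 50 µM zinc acetate, then washed. The proteins were transcription factors with an N-terminal polyhistidine tag and DsRed, expressed in E. coli BL21-CodonPlus and purified on Ni–NTA.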
row,Sequence,binding signal
1,AGGCCCTAGACATCAATTAATTAAAACTTTCAAGGCCCTACGGAGTCACCTAGTGCAG,7010 fluorescence intensity (a.u.)
2,AAAGTACTATTTAAATTGACTACTGGTTGGTAGGACAAGTCGGAGTCACCTAGTGCAG,13300 fluorescence intensity (a.u.)
3,TCTGCTAATTTTAGTTCGGATTTCTAGAATTCGACTTTTACGGAGTCACCTAGTGCAG,4250 fluorescence intensity (a.u.)
4,TAGATAGATAGAATTGAATGGTGACCTCAGCTCCAGCTTCCGGAGTCACCTAGTGCAG,16200 fluorescence intensity (a.u.)
5,CCACTAATTCACAGATTTCAGGGCAACAGCGCGCCCGCACCGGAGTCACCTAGTGCAG,3720 fluorescence intensity (a.u.)
6,AAACCTAGATTATCTCTAATTTCTTCATATCACTGTGTATCGGAGTCACCTAGTGCAG,19500 fluorescence intensity (a.u.)
7,GTAATTGAAAACCTAGTTTACCCGCACCGTCCGATCTCCCCGGAGTCACCTAGTGCAG,16500 fluorescence intensity (a.u.)
8,ATCTCAAATTTTCTAAAATTATAATGGTATGGTTCCAATTCGGAGTCACCTAGTGCAG,6510 fluorescence intensity (a.u.)
9,ATGATTGATCCATGAATCCCATTATCCATCATCCTCGAGTCGGAGTCACCTAGTGCAG,63300 fluorescence intensity (a.u.)
10,CTGAGATAATTTGCTTGAAAGTACCTTGTATGCTAAGGCACGGAGTCACCTAGTGCAG,23800 fluorescence intensity (a.u.)
11,GATGATCATAGAAAGGGAGATTGACAAGTGGGCCCATGGGCGGAGTCACCTAGTGCAG,18200 fluorescence intensity (a.u.)
12,TGAATTGATGGAGTATGTATTTAAAAGCCTCGCTGGCGATCGGAGTCACCTAGTGCAG,20700 fluorescence intensity (a.u.)
13,GTGATGATTTATTTTCGAACTATCTAGCTATTTATCTAGACGGAGTCACCTAGTGCAG,9370 fluorescence intensity (a.u.)
14,AACAGTGCTTAATTGTTGCCATAACCCTGAGGACCCTGGCCGGAGTCACCTAGTGCAG,4530 fluorescence intensity (a.u.)
15,CTTAATGAATACTATCATGCTGCAGTTTTCCCTTTTGTTTCGGAGTCACCTAGTGCAG,8010 fluorescence intensity (a.u.)
16,TCCAATAATTTTCTTTTGCAAAGCTTTGTCACTGGCTCAACGGAGTCACCTAGTGCAG,3510 fluorescence intensity (a.u.)
17,AAAGACAATTATTTTCAAAGTAATTTCCTACTAATTATCGCGGAGTCACCTAGTGCAG,5110 fluorescence intensity (a.u.)
18,TGCACGTGATTGTCAAGTTTATATACCAGTCTACTCGTTTCGGAGTCACCTAGTGCAG,27900 fluorescence intensity (a.u.)
19,TATAAATTGAAAATCGTCTTCCATTATAGCTTTGGATCGACGGAGTCACCTAGTGCAG,19200 fluorescence intensity (a.u.)
20,GGCTAGATGATTTGGATTCGAAATCTCACCCCTTCTAATTCGGAGTCACCTAGTGCAG,5760 fluorescence intensity (a.u.)
21,TAGTTAATATGTAATAATACATTTATTTATTTATATTAGACGGAGTCACCTAGTGCAG,3940 fluorescence intensity (a.u.)
22,AAGATTGGGAAGATACGCAAAACGAGGTGAGCTATTAGTGCGGAGTCACCTAGTGCAG,4430 fluorescence intensity (a.u.)
23,CGACGAAATTATTATTACATATCTGGGTCTGGGTGCCAGCCGGAGTCACCTAGTGCAG,6440 fluorescence intensity (a.u.)
